# From the supplement of paper PMC8728848
# Some of the results follow.
# What was measured:
# Experiment in all cases: glycan array binding signal (z-score within array); higher = stronger binding
# Conditions in all cases: glycan notation: IUPAC condensed, linker removed
# [1] = target: Gal(b1-4)GlcNAc(b1-3)Gal(b1-4)GlcNAc(b1-3)Gal(b1-4)GlcNAc(b1-3)Gal(b1-4)GlcNAc(b1-3)Gal(b1-4)GlcNAc(b1-2)[Gal(b1-4)GlcNAc(b1-3)Gal(b1-4)GlcNAc(b1-3)Gal(b1-4)GlcNAc(b1-3)Gal(b1-4)GlcNAc(b1-3)Gal(b1-4)GlcNAc(b1-6)]Man(a1-6)[Gal(b1-4)GlcNAc(b1-3)Gal(b1-4)GlcNAc(b1-3)Gal(b1-4)GlcNAc(b1-3)Gal(b1-4)GlcNAc(b1-3)Gal(b1-4)GlcNAc(b1-2)Man(a1-3)]Man(b1-4)GlcNAc(b1-4)[Fuc(a1-6)]GlcNAc
# Method in brief: (§1)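 Glycan array data were curated from 3228 arrays in the Consortium for Functional Glycomics database and kept only where the protein sequence was available. Glycan names were converted to IUPAC-condensed notation, and columns mapping to the same glycan were averaged. The binding signal is a within-array Z-score, averaged across arrays of the same protein sequence at different concentrations or buffers and across linkers. Negative Z-scores can be read as non-binding.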
# [2] = target: Gal(b1-4)GlcNAc(b1-3)Gal(b1-4)GlcNAc(b1-3)Gal(b1-4)GlcNAc(b1-3)Gal(b1-4)GlcNAc(b1-3)Gal(b1-4)GlcNAc(b1-3)Gal(b1-4)GlcNAc(b1-2)Man(a1-3)[Gal(b1-4)GlcNAc(b1-3)Gal(b1-4)GlcNAc(b1-3)Gal(b1-4)GlcNAc(b1-3)Gal(b1-4)GlcNAc(b1-3)Gal(b1-4)GlcNAc(b1-3)Gal(b1-4)GlcNAc(b1-2)Man(a1-6)]Man(b1-4)GlcNAc(b1-4)GlcNAc
# Method in brief: as §1
# [3] = target: Gal(b1-4)GlcNAc(b1-3)Gal(b1-4)GlcNAc(b1-3)GalNAc
# Method in brief: as §1
# [4] = target: Gal(b1-4)GlcNAc(b1-3)Gal(b1-4)GlcNAc(b1-3)[Gal(b1-4)GlcNAc(b1-3)Gal(b1-4)GlcNAc(b1-6)]GalNAc
# Method in brief: as §1
# [5] = target: Gal(b1-4)GlcNAc(b1-3)Gal(b1-4)GlcNAc(b1-6)[Gal(b1-3)]GalNAc
# Method in brief: as §1
# [6] = target: Gal(b1-4)GlcNAc(b1-3)Gal(b1-4)[Fuc(a1-3)]GlcNAc(b1-3)Gal(b1-4)[Fuc(a1-3)]GlcNAc
# Method in brief: as §1
# [7] = target: Gal(b1-4)GlcNAc(b1-3)GalNAc
# Method in brief: as §1
# [8] = target: Gal(b1-4)GlcNAc(b1-3)[Fuc(a1-3)GlcNAc(b1-6)]Gal(b1-4)Glc
# Method in brief: as §1
# [9] = target: Gal(b1-4)GlcNAc(b1-3)[Gal(b1-4)GlcNAc(b1-6)]Gal(b1-4)GlcNAc
# Method in brief: as §1
# [10] = target: Gal(b1-4)GlcNAc(b1-3)[Gal(b1-4)GlcNAc(b1-6)]GalNAc
# Method in brief: as §1
# [11] = target: Gal(b1-4)GlcNAc(b1-3)[GlcNAc(b1-6)]Gal(b1-4)GlcNAc
# Method in brief: as §1
# [12] = target: Gal(b1-4)GlcNAc(b1-6)Gal(b1-4)GlcNAc
# Method in brief: as §1
# [13] = target: Gal(b1-4)GlcNAc(b1-6)GalNAc
# Method in brief: as §1
# [14] = target: Gal(b1-4)GlcNAc(b1-6)[Gal(b1-3)]GalNAc
# Method in brief: as §1
# [15] = target: Gal(b1-4)GlcNAc(b1-6)[Gal(b1-4)GlcNAc(b1-3)]GalNAc
# Method in brief: as §1
# Gal(b1-4)GlcNAc6P = target: Gal(b1-4)GlcNAc6P
# Method in brief: as §1
# Gal(b1-6)Gal = target: Gal(b1-6)Gal
# Method in brief: as §1
# Gal3S(b1-3)GalNAc = target: Gal3S(b1-3)GalNAc
# Method in brief: as §1
# Gal3S(b1-3)GlcNAc = target: Gal3S(b1-3)GlcNAc
# Method in brief: as §1
# [16] = target: Gal3S(b1-3)[Fuc(a1-4)]GlcNAc
# Method in brief: as §1
# Gal3S(b1-4)Glc = target: Gal3S(b1-4)Glc
# Method in brief: as §1
# Gal3S(b1-4)Glc6S = target: Gal3S(b1-4)Glc6S
# Method in brief: as §1
# Gal3S(b1-4)GlcNAc = target: Gal3S(b1-4)GlcNAc
# Method in brief: as §1
binder,measurement,setting,value
"AAL (Agrocybe aegerita), Q6WY08 (protein) MQGVNIYNISAGTSVDLAAPVTTGDIVTFFSSALNLNAGAGNPNNTTLNLFAENGAYLLHIAFRLQENVIIFNSRQPDGPWLVEQRVSDVANQFAGIDGKAMVTVFDHGDKYQVVINEKTVIQYTKQISGLTLSLSYNATEETSIFSTVVEAVTYTGLALEHHHHHH",glycan array binding signal (z-score),[1],0.652
same,glycan array binding signal (z-score),[2],-0.099
same,glycan array binding signal (z-score),[3],-0.131
same,glycan array binding signal (z-score),[4],-0.125
same,glycan array binding signal (z-score),[5],-0.154
same,glycan array binding signal (z-score),[6],-0.155
same,glycan array binding signal (z-score),[7],-0.152
same,glycan array binding signal (z-score),[8],-0.135
same,glycan array binding signal (z-score),[9],-0.14
same,glycan array binding signal (z-score),[10],-0.153
same,glycan array binding signal (z-score),[11],-0.137
same,glycan array binding signal (z-score),[12],-0.143
same,glycan array binding signal (z-score),[13],-0.113
same,glycan array binding signal (z-score),[14],-0.13
same,glycan array binding signal (z-score),[15],-0.124
same,glycan array binding signal (z-score),Gal(b1-4)GlcNAc6P,-0.163
same,glycan array binding signal (z-score),Gal(b1-6)Gal,-0.137
same,glycan array binding signal (z-score),Gal3S(b1-3)GalNAc,9.4
same,glycan array binding signal (z-score),Gal3S(b1-3)GlcNAc,0.178
same,glycan array binding signal (z-score),[16],-0.147
same,glycan array binding signal (z-score),Gal3S(b1-4)Glc,0.095
same,glycan array binding signal (z-score),Gal3S(b1-4)Glc6S,1.42
same,glycan array binding signal (z-score),Gal3S(b1-4)GlcNAc,1.07
